# T1: Human OX40 (human, UniProt P43489 29-277)
# T1 sequence: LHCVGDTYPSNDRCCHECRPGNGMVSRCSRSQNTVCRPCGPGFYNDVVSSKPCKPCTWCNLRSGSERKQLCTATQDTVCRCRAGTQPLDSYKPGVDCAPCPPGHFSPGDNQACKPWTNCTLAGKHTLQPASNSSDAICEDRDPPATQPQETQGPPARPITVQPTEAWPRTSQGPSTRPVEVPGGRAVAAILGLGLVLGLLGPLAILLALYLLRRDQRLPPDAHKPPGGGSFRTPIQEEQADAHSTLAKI
# T2: Human TNFRSF14 (HVEM) expressed on HEK293 cells (human, UniProt Q92956 39-283)
# T2 construct: whole, on cells; also called TR2
# T2 sequence (looked up): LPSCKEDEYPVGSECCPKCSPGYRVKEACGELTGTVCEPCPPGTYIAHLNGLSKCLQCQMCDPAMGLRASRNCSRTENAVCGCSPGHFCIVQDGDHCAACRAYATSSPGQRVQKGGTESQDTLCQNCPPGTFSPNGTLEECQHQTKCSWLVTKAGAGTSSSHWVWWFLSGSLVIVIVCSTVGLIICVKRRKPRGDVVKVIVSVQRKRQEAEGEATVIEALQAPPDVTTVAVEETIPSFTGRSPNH
# B1: OX40mAb24 (antibody, human IgG1, kappa)
# heavy: QVQLQESGPGLVKPSQTLSLTCAVYGGSFSSGYWNWIRKHPGKGLEYIGYISYNGITYHNPSLKSRITINRDTSKNQYSLQLNSVTPEDTAVYYCARYKYDYDGGHAMDYWGQGTLVTVSSASTKGPSVFPLAPSSKSTSGGTAALGCLVKDYFPEPVTVSWNSGALTSGVHTFPAVLQSSGLYSLSSVVTVPSSSLGTQTYICNVNHKPSNTKVDKRV[skipping human IgG1 Fc]
# light: DIQMTQSPSSLSASVGDRVTITCRASQDISNYLNWYQQKPGKAPKLLIYYTSKLHSGVPSRFSGSGSGTDYTLTISSLQPEDFATYYCQQGSALPWTFGQGTKVEIKRTVAAPSVFIFPPSDEQLKSGTASVVCLLNNFYPREAKVQWKVDNALQSGNSQESVTEQDSKDSTYSLSSTLTLSKADYEKHKVYACEVTHQGLSSPVTKSFNRGEC
# notes: Humanized from 9B12; human IgG1 kappa; also called humanized anti-human OX40 IgG1κ monoclonal antibody
# Tests used:
# Human OX40 [1] = molecular target: T1, Human OX40; assay: cell-based or functional assay
# [2] = molecular target: T3, Human TNFRSF9 (CD137) expressed on HEK293 cells (human, UniProt Q07011 24-255); assay: flow cytometry histogram, transiently transfected HEK293 cells, goat anti-human AlexaFluor 647 secondary [FIGURE 4A-B, con't), panel A (cont'd]
# T3 construct: whole, on cells; also called 4-1BB
# T3 sequence (Q07011 24-255): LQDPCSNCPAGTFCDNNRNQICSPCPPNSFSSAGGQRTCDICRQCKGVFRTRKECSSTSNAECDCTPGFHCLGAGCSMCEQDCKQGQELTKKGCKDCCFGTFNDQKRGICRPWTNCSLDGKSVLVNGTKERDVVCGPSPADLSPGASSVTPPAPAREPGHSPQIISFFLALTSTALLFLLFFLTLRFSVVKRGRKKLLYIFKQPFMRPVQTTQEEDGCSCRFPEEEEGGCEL
# Source text: (§1) cDNA constructs capable of directing the expression of individual TNFRSF members, when transfected into mammalian cells, were obtained from Origene Technologies, Rockville, Md. These cDNA constructs were amplified and purified by the Protein Sciences group at MedImmune in Gaithersburg, Md. for use in transient transfections. […] Forty-eight hours post transfection, cells were removed from tissue culture plates by trypsinization. […] Cells were then suspended in cold FACS buffer (PBS+2% FBS) and plated into 96 well non-tissue culture-treated plates for binding studies with TNFRSF member-specific mAbs (Table 3-3) and OX40mAb24.
# (§2) For binding of antibodies or OX40mAb24, HEK cells were pelleted, FACS buffer removed, and cells suspended in FACS buffer containing 2 μg/mL propidium iodide (PI) and either a fluorochrome-labeled mAb, specific for the transfected TNFRSF member, at a concentration recommended by the manufacturer or with OX40mAb24 at a concentration of 1 μg/mL. For binding controls, cells were separately incubated with fluorochrome-labeled isotype control antibodies. […] Thereafter, cells incubated with fluorochrome-labeled monoclonal antibodies were washed in cold FACS buffer and then binding events collected and analyzed by flow cytometry using an LSRII flow cytometer (BD Biosciences, San Jose, Calif.) and FlowJo software, as described in Section 3.2.3. […]
# [3] = molecular target: T2, Human TNFRSF14 (HVEM) expressed on …; assay: as above
# Source text: as §1, §2
# [4] = molecular target: cyno/rhesus OX40 expressed on Jurkat NFκB-luciferase reporter clone B2 (cynomolgus/rhesus monkey); assay: cell-based or functional assay
# Human OX40 [5] = molecular target: T1, Human OX40; assay: cell-based or functional assay; remark: listed apart in the source
# Rhesus monkey OX40 [6] = molecular target: T4, Rhesus monkey OX40 (rhesus monkey); assay: flow cytometry, equilibrium binding to activated primary rhesus CD4+ T cells; mean of 2 experiments (StdErr)
# T4 construct: also called rhesus macaque OX40
# Cynomolgus monkey OX40 [7] = molecular target: T5, Cynomolgus monkey OX40 (cynomolgus monkey); assay: flow cytometry, equilibrium binding to activated primary cynomolgus CD4+ T cells; mean of 2 experiments (StdErr)
# T5 construct: also called cyno OX40
# Method: Cyno CD4⁺ T cell isolation was performed with a Miltenyi non-human primate kit according to manufacturer's instructions, then CD4⁺ T cells counted on a ViCell counter and suspended at 1×10⁶ per mL in complete medium as described above.
# (§3) Cyno CD4⁺ T cells (1×10⁶ per mL in complete medium) were incubated for 48 hours in a T75 cell culture flask with 2 μg/mL PHA-L and 20 IU/mL IL-2, to activate T cells and induce OX40 expression. Activated CD4⁺ T cells were removed from the flask and 100,000 cells were transferred to each well of a non-tissue culture treated 96-well round-bottom plate for binding assays and washed with 200 μL FACS buffer. Binding was performed with 10 μg/mL OX40mAb24 or 9B12 serially diluted 4-fold in FACS buffer for an 11-point data curve, or both R347 human IgG1 or mouse IgG1 clone MOPC-21 (negative controls) serially diluted 6-fold for a 3 point data curve. OX40mAb24, 9B12 or control protein was added to CD4⁺ T cells and incubated. […] Following secondary antibody incubation, cells were processed for flow cytometry as described in Section 2.3.
# Human OX40 [8] = molecular target: T1, Human OX40; assay: flow cytometry on OX40-overexpressing Jurkat cells, 1 µg/mL
# Human OX40 [9] = molecular target: T1, Human OX40; assay: cell-based or functional assay; remark: listed apart in the source
# Cynomolgus monkey OX40 [10] = molecular target: T5, Cynomolgus monkey OX40; assay: flow cytometry on activated primary CD4+ T cells
# Method: as §3
# (§4) Rhesus CD4⁺ T cells (1×10⁶ per mL in complete medium) were cultured for 48 hours in a T75 cell culture flask with 5 μg/mL Con-A and 1000 IU/mL IL-2 to activate T cells and induce OX40 expression. Binding to 100,000 activated rhesus CD4⁺ T cells was performed with 10 μg/mL OX40mAb24 and 9B12 serially diluted 3-fold in FACS buffer for a 10 point (experiment 1) or 12 point data curve (experiment 2) and 10 μg/mL human and mouse isotype controls diluted 6-fold for 2 data points (experiment 1) or 4 data points (experiment 2).
# Rhesus monkey OX40 [11] = molecular target: T4, Rhesus monkey OX40; assay: flow cytometry on activated primary CD4+ T cells
# Method: as §3, §4
binder,measurement,setting,value
B1,"EC50, IFNγ release, donor 367",Human OX40 [1],0.0572 nM
same,"EC50, IFNγ release, donor 645",Human OX40 [1],0.0582 nM
same,"EC50, IFNγ release, donor 651",Human OX40 [1],0.0774 nM
same,binding result,[2],no binding (tested: 1 µg/mL)
same,binding result,[3],no binding (tested: 1 µg/mL)
same,"EC50, NFκB-luciferase 2-cell assay, rhesus RBC-lysed whole blood + cyno/rhesus OX40 Jurkat clone B2",[4],0.55 nM
same,"mean EC50, NFκB-luciferase 2-cell assay, human Raji B cells + human OX40 Jurkat clone 64",Human OX40 [5],1.11 nM
same,Kd,Rhesus monkey OX40 [6],0.369 nM
same,Kd,Cynomolgus monkey OX40 [7],0.581 nM
same,ratio of MFI to secondary antibody alone,Human OX40 [8],48 fold
same,"EC50, IL13 release, donor 645",Human OX40 [9],0.0738 nM
same,"EC50, IL13 release, donor 651",Human OX40 [9],0.065 nM
same,fold of cyno Kd over human Kd,Cynomolgus monkey OX40 [10],1.9 fold
same,fold of rhesus Kd over human Kd,Rhesus monkey OX40 [11],1.2 fold
